The whole screen tested about 290,000 compounds, of which about 2,100 (0.72%) were called active. This list was built around the results that the source calls inconclusive (neither active nor inactive); the mix of calls is not that of the screen. Calls come from the whole dose curve; as a rule, active = well fitted inhibition curve with a large enough effect; inconclusive = small, poorly fitted or top-dose-only effect, or effect the other way; inactive = flat fitted curve, though single readings scatter. Potencies of inconclusive entries are doubtful fits and often do not repeat.
Molecular target: Fructose-bisphosphate aldolase (Giardia intestinalis (strain ATCC 50803 / WB clone C6)) (UniProt A8B2U2)
Sequence of UniProt A8B2U2 (A8B2U2 whole entry, looked up): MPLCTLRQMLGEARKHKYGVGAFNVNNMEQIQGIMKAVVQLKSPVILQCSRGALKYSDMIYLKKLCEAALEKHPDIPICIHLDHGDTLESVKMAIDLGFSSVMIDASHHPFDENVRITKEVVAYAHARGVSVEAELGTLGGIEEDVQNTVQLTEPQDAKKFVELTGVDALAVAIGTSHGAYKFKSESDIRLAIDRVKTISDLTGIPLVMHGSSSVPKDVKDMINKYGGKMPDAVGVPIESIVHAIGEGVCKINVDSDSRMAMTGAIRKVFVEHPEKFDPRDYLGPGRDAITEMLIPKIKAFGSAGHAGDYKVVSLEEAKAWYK
Assay: qHTS Assay for Inhibitors of Fructose-1,6-bisphosphate Aldolase from Giardia Lamblia; note: nearly all actives have a fitted effect of over 55% in size
Settings: purified Giardia FBPA; activity, negative = inhibition: at 59.6 µM (top of the series) unless noted
Outline: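 Giardia FBPA (40 nM reagent) was preincubated 10 min at RT with compound (up to 57.5 uM final), then substrate plus GAPDH/TPI/NAD/arsenate coupling system with diaphorase/resazurin was added; resorufin fluorescence (525/598 nm) was read after 20 min.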
% is set by controls: 0 for no effect and ±100 for the full control effect; potency is the fitted concentration of half-maximal effect; tags give direction and shape of the fitted curve.

Compound | Potency | activity, negative = inhibition
CC(=O)NN1C(=O)c2ccc3c4c(ccc(c24)C1=O)C(=O)N(NC(C)=O)C3=O | inconclusive: 0.355 µM [inhibitor, full curve] | –
CSCCOC(=O)C1=C(C)Nc2ccc(C)cc2S1 | inconclusive: 15.8 µM [inhibitor, single point] | –
Nn1c(CSc2nc3ccccc3o2)nnc1CSc1nc2ccccc2o1 | inconclusive: 15.8 µM [inhibitor, partial curve] | –
C=CCn1c(Cc2ccccc2)n[nH]c1=S | inconclusive: 1.58 µM [inhibitor, full curve, poor fit] | –
Cc1ccc(-c2ccc(CCC(=O)O)n2NC(=O)c2cccs2)cc1 | inconclusive: 7.94 µM [activator, full curve] | –
CCN1C(=O)[C@H]2[C@H]3[C@H](O)[C@H](O)C/C(=N/O[C@@H](C)CN4CCCc5nc(C)c(C)cc54)[C@@H]3CC[C@@H]2C1=O | – | inactive: -4.73% [at 12.9 µM]
C=CCN(Cc1nc(-c2ccc(OC)c(OC)c2)oc1C)C1CCS(=O)(=O)C1 (stereo not drawn) | inconclusive: 14.1 µM [inhibitor, partial curve] | –
O=C(O)COc1cccc2c1CCC=C2CCO/N=C(\c1ccccc1)c1cccnc1 | inconclusive: 15.8 µM [activator, partial curve] | –
Cc1nnc(NC(=O)CSc2nnc(C(C)NC(=O)c3ccccc3F)n2C)s1 (stereo not drawn) | inconclusive: 22.4 µM [inhibitor, partial curve] | –
O=[N+]([O-])c1ccc(NNC(=S)Nc2ccccc2)cc1 | inconclusive: 5 µM [inhibitor, partial curve] | –
c1csc(-c2nn3c(Cn4cnc5ccccc54)nnc3s2)c1 | inconclusive: 19.9 µM [inhibitor, partial curve] | –
Nc1nc2c(s1)CCc1c-2cnn1-c1ccccc1 | active: 0.397 µM | –
O=C1/C(=N\S(=O)(=O)c2cccs2)C([n+]2ccc(CCCc3ccccc3)cc2)=C([O-])c2ccccc21 | inconclusive: 0.199 µM [inhibitor, full curve] | –
Cc1nc(C(F)(F)F)c(C(=O)N/N=C(\N)c2ccccn2)s1 | active: 4.46 µM | –
Cc1ccc(-c2c(C(=O)Nc3ccccc3C)c(C)[nH]c(=S)c2C#N)o1 | inconclusive: 5 µM [inhibitor, full curve] | –
CCc1ccc(N2Cc3ccccc3C2)cc1 | – | inactive: -18.6%
CC(=O)c1cccc(NC(=S)NC(=O)c2ccccc2)c1 | inconclusive: 12.6 µM [inhibitor, partial curve] | –
CCN(CC)CCOc1ccccc1C(C)=O | inconclusive: 15.8 µM [inhibitor, partial curve] | –
CCN1CCN(CCOc2cccc(Oc3ccccc3)c2)CC1 | inconclusive: 17.7 µM [inhibitor, partial curve] | –
Clc1nssc1=Nc1ccccc1 | inconclusive: 19.9 µM [inhibitor, single point] | –
CCOC(=O)C(NC(=O)NCc1ccc(OC)cc1)(OCC)C(F)(F)F (stereo not drawn) | – | inactive: 9.93%
CN(C)Cc1c(O)ccc2cc(-c3nc4ccccc4n3C)c(=O)oc12 | inconclusive: 35.5 µM [inhibitor, partial curve] | –
O=C(CN1CCSCC1)N/N=C/c1ccc(Cl)cc1 | inconclusive: 17.7 µM [inhibitor, partial curve] | –

Compound | Potency | activity, negative = inhibition
COc1ccc(/C=C2/SC(=S)N(NS(=O)(=O)c3ccc(C)cc3)C2=O)cc1 | inconclusive: 14.1 µM [inhibitor, partial curve] | –
CCOC(=O)C1=C(CS(=O)(=O)c2ccc(F)c(C)c2)NC(=O)NC1c1ccc(O)c(O)c1 (stereo not drawn) | inconclusive: 15.8 µM [inhibitor, partial curve] | –
CC1CCC/C(=C\Nc2ccc3c(c2)OCO3)C1=O (stereo not drawn) | inconclusive: 14.1 µM [inhibitor, partial curve] | –
CCCSc1oc(-c2ccco2)nc1S(=O)(=O)c1ccccc1 | inconclusive: 25.1 µM [inhibitor, single point] | –
COc1cc(CN2CCc3ccccc3C2)ccc1O | inconclusive: 15.8 µM [inhibitor, partial curve] | –
COC(=O)C1=C(C)N(Cc2ccccc2)C(=NCc2ccco2)N[C@H]1c1ccc(Br)cc1 | inconclusive: 17.8 µM [inhibitor, partial curve] | –
Cc1ccc(S(=O)(=O)NNC(=S)NCC2CCCO2)cc1 (stereo not drawn) | inconclusive: 4.47 µM [inhibitor, partial curve] | –
O=C1NC(=O)N(Cc2ccccc2)C(=O)/C1=C/N1CCCc2ccccc21 | inconclusive: 5.61 µM [inhibitor, full curve, poor fit] | –
c1ccc(-n2cnnc2SCc2cn3cccnc3n2)cc1 | – | inactive: -8.24%
CCOC(=O)c1c(/N=C/C2=C(O)CC(C)(C)CC2=O)sc(C)c1C | – | inactive: 5.68%
CCC(C)N(C)C1CCN(C(=S)Nc2cccc(SC)c2)CC1 (stereo not drawn) | active: 9.98 µM | –
COC(=O)c1ccc(C(NC(=O)OCc2ccccc2)/C(C)=C/[C@@H](C)C(=O)NCc2nc3ccccc3s2)cc1 (stereo partly drawn) | – | inactive: 0.332%
Cc1cc(C)cc(OCc2ccc(C(=O)O)o2)c1 | inconclusive: 19.9 µM [activator, single point] | –
Cc1ccc(Cn2c(=O)cc(C(=O)O)c3ccccc32)cc1 | inconclusive: 17.7 µM [activator, partial curve] | –
S=c1[nH]nc(-c2ccccn2)n1/N=C/c1ccc(Cl)cc1 | inconclusive: 15.8 µM [inhibitor, partial curve] | –
COc1cc2c(cc1OC)CN(Cc1ccc(C)s1)CC2 | inconclusive: 19.9 µM [inhibitor, partial curve] | –
CC1(C(=O)O)Sc2[nH]c(=O)sc2C2c3ccccc3OC(=O)C21 (stereo not drawn) | inconclusive: 2.23 µM [inhibitor, full curve] | –
CCC(C)c1ccccc1NC(=O)C(C)NCCN(C)C (stereo not drawn) | inconclusive: 6.29 µM [inhibitor, partial curve] | –
CCc1ccc(NC(=O)C2CCN(C(=O)[C@@H]3Cc4ccccc4CN3)CC2)cc1 | inconclusive: 35.5 µM [inhibitor, partial curve, poor fit] | –
O=C(NCCCN1CCOCC1)c1sc2cc(Cl)ccc2c1Cl | – | inactive: -0.55%
COc1ccc(NC(=O)CSc2nnc(C)c(=O)n2N)cc1 | inconclusive: 22.4 µM [inhibitor, partial curve] | –
COC(=O)c1ccc(COc2cccc(OC)c2)o1 | – | inactive: -1.3%
Cc1ccsc1/C=C1/C(=O)NN(c2ccccc2)C1=O | inconclusive: 15.8 µM [inhibitor, single point] | –

Compound | Potency | activity, negative = inhibition
CC(C)C[C@H](NC(=O)c1nc[nH]c1C(=O)NCC(=O)OC(C)(C)C)C(=O)OCc1ccccc1 | inconclusive: 19.9 µM [inhibitor, partial curve, poor fit] | –
CCN(Cc1ccccc1)C(=O)Cn1c(=O)n(CCC(=O)N2CCCCC2)c(=O)c2sccc21 | – | inactive: 3.57%
CC(C)(C)C(=O)NC(Nc1cccc2cccnc12)C(Cl)(Cl)Cl (stereo not drawn) | inconclusive: 15.8 µM [inhibitor, partial curve] | –
Cc1n[nH]c(=S)n(/N=C/c2cccs2)c1=O | inconclusive: 17.7 µM [inhibitor, partial curve] | –
Cc1cnc(NC(=O)c2ccc(-c3nc4ccccc4s3)o2)s1 | – | inactive: 4.07%
COc1ccc(-c2cn[nH]c2N)c(OC)c1 | inconclusive: 19.9 µM [inhibitor, single point] | –
CCOC(=O)Cc1csc(NC(=O)CN2CCN(c3ccccc3)CC2)n1 | inconclusive: 14.1 µM [inhibitor, partial curve] | –
N#Cc1c2c(c(NCc3ccco3)n3c1nc1ccccc13)CCC2 | inconclusive: 3.97 µM [inhibitor, full curve] | –
O=c1cc(-c2ccccc2)[nH]n1-c1nc2ccccc2s1 | inconclusive: 17.7 µM [activator, single point] | –
COc1cc(/C=C2/C(=O)ON=C2c2ccccc2)ccc1O | – | inactive: -3.39%
Cc1ccccc1-c1cc(C(=O)Nc2sc(C(=O)OC(C)C)c(C)c2C#N)c2ccccc2n1 | – | inactive: -11.6%
O=C(NC1CCCC1)C(c1ccc(F)cc1)N(Cc1ccc(F)cc1)C(=O)c1ccn[nH]1 (stereo not drawn) | – | inactive: 2.02%
CCCSC1=C(C#N)C(c2ccc(O)c(OC)c2)CC(=O)N1 (stereo not drawn) | inconclusive: 19.9 µM [inhibitor, partial curve] | –
CCCCCCC(=O)Cc1cc(OC)c(OC)cc1/C=C(/C(C)=O)C(=O)OC | – | inactive: -3.06% [at 12.9 µM]
CCOc1cc(CN2CCN(c3cccc(C(F)(F)F)c3)CC2)ccc1OC | inconclusive: 35.4 µM [inhibitor, single point] | –
COc1cccc(OC)c1OCCCc1c(C)n[nH]c1C | inconclusive: 19.9 µM [inhibitor, single point] | –
C[C@]12C[C@@](C)(C=C1/C=C/c1ccccc1)C(=O)C[C@H]2c1ccccc1 | – | inactive: 2.94%
O=C1ON=C(c2ccc([N+](=O)[O-])cc2)/C1=C/c1ccccc1O | – | inactive: -10.1%
O=S(=O)(Nc1ccc(O)c2ccccc12)c1cccs1 | inconclusive: 25.1 µM [inhibitor, partial curve] | –
COc1ccccc1N1C(=O)[C@@H]2[C@H](C1=O)[C@H](C(=O)c1ccc(OC(C)=O)cc1)N1N=CC=C[C@@H]21 | inconclusive: 28.1 µM [inhibitor, single point] | –
O=C(Cc1cccs1)NCc1cccc(Br)c1 | – | inconclusive: 44.4% [activator]
CCOC(=O)N1CCC(N2CCN(S(=O)(=O)c3ccc(Cl)cc3)CC2)CC1 | inconclusive: 17.7 µM [inhibitor, single point] | –

Source: PubChem BioAssay AID2451 (National Center for Advancing Translational Sciences (NCATS), 2010)
